In the antibiotic and cytotoxicity screens of Wong et al. (2023):
Some of the results follow.

Key:
HSkMC = human skeletal muscle cells; assay: cytotoxicity call (relative viability < 0.9); settings: 10 µM
HepG2 = assay: cytotoxicity call (relative viability < 0.9); settings: 10 µM
S. aureus RN4220 = assay: growth inhibition call (relative growth <= 0.2); settings: 50 µM

Structure (SMILES)	cytotoxicity call (HSkMC)	cytotoxicity call (HepG2)	growth inhibition call (S. aureus RN4220)
COc1ccc(NC(=O)Nc2ccc3c(c2)CC(=O)N([C@@H](C)CO)C[C@H](C)[C@@H](CN(C)S(=O)(=O)c2cn(C)cn2)O3)cc1	inactive	inactive	inactive
C[C@H](CO)N1C[C@H](C)[C@H](CN(C)C(=O)c2ccccn2)Oc2cc(C#Cc3ccccc3)ccc2S1(=O)=O	inactive	inactive	inactive
COc1ccc(CN(C)C[C@H]2OCCCC[C@@H](C)Oc3ccc(NC(=O)c4ccncc4)cc3C(=O)N([C@H](C)CO)C[C@H]2C)cc1	inactive	inactive	inactive
NCCCCCc1nc2ccccc2[nH]1	inactive	inactive	inactive
COc1ccc(NC(=O)N(C)C[C@H]2OCCCC[C@H](C)Oc3ccc(NC(=O)Nc4cccc5ccccc45)cc3C(=O)N([C@H](C)CO)C[C@@H]2C)cc1	inactive	inactive	inactive
COc1ccc(NC(=O)Nc2ccc3c(c2)CC(=O)N([C@H](C)CO)C[C@@H](C)[C@@H](CN(C)CC2CCCCC2)O3)cc1	inactive	active	inactive
CO[C@@H]1CN(C)C(=O)c2ccc(NC(=O)c3ccc(F)cc3)cc2OC[C@@H](C)N(C(=O)CN(C)C)C[C@@H]1C	inactive	inactive	inactive
CC(C)NC(=O)N(C)C[C@H]1Oc2ccc(NC(=O)Nc3ccc4c(c3)OCO4)cc2CC(=O)N([C@H](C)CO)C[C@@H]1C	inactive	inactive	inactive
Cc1ccc(S(=O)(=O)N(C)C[C@H]2Oc3c(NS(=O)(=O)c4ccc(F)cc4)cccc3C(=O)N([C@H](C)CO)C[C@H]2C)cc1	inactive	inactive	inactive
C[C@H](CO)N1C[C@H](C)[C@@H](CN(C)Cc2ccc(C(=O)Nc3ccccc3N)cc2)Oc2ccc(NC(=O)CCN3CCOCC3)cc2CC1=O	inactive	inactive	inactive
Cc1ccc(S(=O)(=O)N(C)C[C@H]2OCCCC[C@@H](C)Oc3ccc(NC(=O)Nc4ccccc4)cc3C(=O)N([C@@H](C)CO)C[C@H]2C)cc1	inactive	inactive	inactive
C[C@@H]1CN([C@H](C)CO)C(=O)c2cc(NC(=O)Nc3ccc4c(c3)OCO4)ccc2O[C@@H](C)CCCCO[C@@H]1CN(C)C(=O)NC1CCCCC1	inactive	inactive	inactive
COc1ccc(NC(=O)Nc2ccc3c(c2)C(=O)N([C@H](C)CO)C[C@@H](C)[C@H](CN(C)Cc2ccc(Cl)c(Cl)c2)OCCCC[C@H](C)O3)cc1	active	inactive	inactive
C[C@H](CO)N1C[C@H](C)[C@@H](CN(C)C(=O)c2ccccc2)Oc2cc(C#CC3(O)CCCC3)ccc2S1(=O)=O	inactive	inactive	inactive
Cc1ccc(S(=O)(=O)N(C)C[C@@H]2Oc3ccc(NS(=O)(=O)c4ccc(F)cc4)cc3C(=O)N([C@@H](C)CO)C[C@@H]2C)cc1	inactive	inactive	inactive
C[C@@H]1CCCCO[C@@H](CN(C)C(=O)Nc2ccccc2)[C@@H](C)CN([C@@H](C)CO)C(=O)c2cc(NC(=O)c3ccccc3)ccc2O1	inactive	inactive	inactive
C[C@@H]1CN([C@@H](C)CO)C(=O)c2cccc(N(C)C)c2O[C@H]1CN(C)S(C)(=O)=O	inactive	inactive	inactive
C[C@@H]1CCCCO[C@@H](CN(C)Cc2ccccc2)[C@H](C)CN([C@H](C)CO)C(=O)c2cc(NC(=O)Nc3ccccc3)ccc2O1	inactive	active	inactive
CC1(C)C[C@H](c2nc(-c3ccccc3)cs2)CCS1	inactive	active	inactive
C[C@H]1CN([C@@H](C)CO)C(=O)c2cccc(NS(=O)(=O)c3ccccc3)c2O[C@@H]1CN(C)Cc1ccncc1	inactive	inactive	inactive
C[C@@H]1CCCCO[C@H](CN(C)C(=O)Nc2ccc(F)cc2)[C@@H](C)CN([C@H](C)CO)C(=O)c2cc(NC(=O)CCC(F)(F)F)ccc2O1	inactive	inactive	inactive
C[C@@H]1CN([C@@H](C)CO)C(=O)c2cc(C#CCc3ccccc3)cnc2O[C@@H]1CN(C)CC1CCOCC1	inactive	inactive	inactive
O=C(C[C@H]1CC[C@H]2[C@@H](COC[C@@H](O)CN2C(=O)Nc2ccc(F)cc2)O1)NCCCN1CCOCC1	inactive	inactive	inactive
Cc1noc(C)c1NC(=O)N(C)C[C@H]1OCCCC[C@H](C)Oc2ccc(NC(=O)Nc3ccc(F)cc3)cc2C(=O)N([C@@H](C)CO)C[C@@H]1C	inactive	inactive	inactive
Cc1cc(C(=O)Nc2cccc3c2O[C@@H](CN(C)S(=O)(=O)c2ccccc2)[C@@H](C)CN([C@@H](C)CO)C3=O)n(C)n1	inactive	inactive	inactive
C[C@H](CO)N1C[C@H](C)[C@@H](CN(C)Cc2ccc3c(c2)OCO3)Oc2ccc(NC(=O)C3CC3)cc2C1=O	inactive	inactive	inactive
C[C@H]1CN([C@@H](C)CO)C(=O)Cc2cc(NS(=O)(=O)c3ccccc3)ccc2O[C@H]1CN(C)Cc1ccc2c(c1)OCO2	inactive	inactive	inactive

Structure (SMILES)	cytotoxicity call (HSkMC)	cytotoxicity call (HepG2)	growth inhibition call (S. aureus RN4220)
O=C(O)C[C@@H]1CC[C@@H]2[C@H](COC[C@H](O)CN2S(=O)(=O)c2ccc(F)cc2)O1	inactive	inactive	inactive
C[C@@H]1CN([C@H](C)CO)C(=O)c2cc(C#CCc3ccccc3)cnc2O[C@H]1CN(C)C(=O)C1CCOCC1	inactive	inactive	inactive
C[C@H](CO)N1C[C@H](C)[C@H](CN(C)S(=O)(=O)c2ccccc2)Oc2c(NC(=O)Nc3cccc4ccccc34)cccc2C1=O	inactive	inactive	inactive
COc1ccc([C@H]([C@H](Cc2ccccc2)OC(C)=O)N(CC#C[C@@H](O)c2ccccc2)[C@@H](Cc2ccccc2)C(OC)OC)cc1	inactive	active	inactive
CC(C)(O)C#Cc1ccc([C@H]2[C@H](CO)N3CCCCN(S(C)(=O)=O)C[C@@H]23)cc1	inactive	inactive	inactive
CNC(C)C1CCC(N)C(OC2C(N)CC(N)C(OC3OCC(C)(O)C(NC)C3O)C2O)O1.O=S(=O)(O)O (configuration not stated)	inactive	active	inactive
Cn1nnc2c1[C@H](COCCN1CCCC1)CN(S(C)(=O)=O)C2	inactive	inactive	inactive
COCC#Cc1cnc2c(c1)C(=O)N([C@@H](C)CO)C[C@H](C)[C@H](CN(C)C(=O)CCN1CCCCC1)O2	inactive	inactive	inactive
FC(F)(F)c1ccc(CSc2c[nH]c3ccccc23)cc1	inactive	inactive	active
COC(=O)NCCOc1nc(N(C)C)nc(N(C)C)n1	inactive	inactive	inactive
COc1ccc(CN(C)C[C@H]2Oc3c(NC(=O)c4cnccn4)cccc3C(=O)N([C@@H](C)CO)C[C@@H]2C)cc1	inactive	inactive	inactive
CC(=O)N[C@H]1CC[C@@H](CCNC(=O)C2CC2)O[C@@H]1CO	inactive	inactive	inactive
O=C(CCCCCCC(=O)Nc1ccccc1O)N/N=C/c1ccc(N(c2ccccc2)c2ccccc2)cc1	inactive	active	inactive
COCCOC(=O)N1C(=O)[C@@]2(c3cc(C#CCC(C(=O)OC)C(=O)OC)ccc31)[C@H](c1ccccc1OCCO)N1[C@H](c3ccccc3)[C@H](c3ccccc3)OC(=O)[C@H]1[C@@H]2C(=O)Nc1nc2ccccc2s1	inactive	inactive	inactive
C[C@H](CO)N1C[C@H](C)[C@H](CN(C)S(=O)(=O)c2cn(C)cn2)Oc2cc(C3=CCCCC3)ccc2S1(=O)=O	inactive	inactive	inactive
C[C@@H]1CCCCO[C@H](CN(C)Cc2ccc(C(=O)O)cc2)[C@H](C)CN([C@H](C)CO)C(=O)c2cc(NC(=O)Nc3ccc(F)cc3)ccc2O1	inactive	inactive	inactive
Cc1ccc(S(=O)(=O)Nc2ccc3c(c2)CC(=O)N([C@H](C)CO)C[C@H](C)[C@@H](CN(C)Cc2ccc(Cl)c(Cl)c2)O3)cc1	inactive	inactive	inactive
COc1ccc(S(=O)(=O)Nc2ccc3c(c2)CC(=O)N([C@H](C)CO)C[C@H](C)[C@@H](CN(C)C(=O)NC(C)C)O3)cc1	inactive	inactive	inactive
COc1ccc(NC(=O)N(C)C[C@@H]2OCc3cnnn3CCCC(=O)N([C@@H](C)CO)C[C@H]2C)c(OC)c1	inactive	inactive	inactive
C[C@H]1CN([C@@H](C)CO)C(=O)c2cc(NC(=O)C3CCCCC3)ccc2O[C@@H]1CN(C)S(=O)(=O)c1cn(C)cn1	inactive	inactive	inactive
Cc1noc(C)c1NC(=O)Nc1ccc2c(c1)C(=O)N([C@H](C)CO)C[C@@H](C)[C@H](CN(C)Cc1ccc(Cl)c(Cl)c1)OCCCC[C@H](C)O2	inactive	inactive	inactive
COc1ccc(NC(=O)Nc2ccc3c(c2)C(=O)N([C@@H](C)CO)C[C@H](C)[C@@H](CN(C)S(=O)(=O)c2ccc(OC)cc2)OCCCC[C@H](C)O3)cc1	inactive	inactive	inactive
O=C(O[C@@H]1O[C@H]2COC(=O)c3cc(O)c(O)c(O)c3-c3c(cc(O)c(O)c3O)C(=O)O[C@@H]([C@H]1O)[C@@H]2O)c1cc(O)c(O)c(O)c1	inactive	inactive	inactive
COc1ccc(NC(=O)N(C)C[C@@H]2Oc3ccc(NS(C)(=O)=O)cc3CC(=O)N([C@H](C)CO)C[C@H]2C)cc1	inactive	inactive	inactive
CN(C)CC(=O)N1[C@@H]2c3ccc(-c4ccncc4)c(=O)n3C[C@H]1[C@H](CO)[C@H]2C(=O)NC1CCC1	inactive	inactive	inactive
O=C(N[C@H]1CC[C@@H](CCNS(=O)(=O)c2ccc(F)cc2)O[C@@H]1CO)C1CC1	inactive	inactive	inactive
CC(C)(C)[S@@](=O)N1Cc2cc(C(=O)NCc3ccc4c(c3)OCO4)nc(-c3cccc(-c4ccccc4)c3)c2[C@H]1CCO	inactive	inactive	inactive
